Measured values from the RNAGym collection of RNA variant scans (doi:10.1093/nar/gkz1192).
Read counts are not given, so values of variants with three or more changes are uncertain.

B1: CPEB3 Ribozyme (parent)
chain: UAACAGGGGGCCACAGCAGAAGCGUUCACGUCGCAGCCCCUGUCAGAUUCUGGUGAAUCUGCGAAUUCUGCUGUAUAUCUC

Variants of: B1
Assay: self-cleavage, relative activity (ratio to wild type); higher = more cleavage; in vitro, sequencing
Method in brief: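 CPEB3 self-cleaving ribozyme mutant libraries were made by rounds of error-prone PCR, barcoded, and transcribed in vitro with T7 RNA polymerase for 5 hours at 37°C. Cleavage occurred during transcription and a 15 min DNase I step before EDTA stop. RNAs were reverse transcribed with template switching and Illumina-sequenced, with DNA sequencing mapping barcodes to variants. Relative activity is the variant's cleaved/total read fraction divided by wild type's (minimum 5 reads), averaged across three batches.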

Variant | self-cleavage
UAACAGGGGGCCACAACAGAAGCGUUCACGUCGCAGCCCCUGUCAGACUCUGGUGAUUCUGCGAAUCCUGCUGUAUAUCUC [G16A U48C A57U U67C] | 0.11
UAACAGGGGGCCACAACUGAAGCGUUCACGUCGCUGCCCCUGUCAGAUUCUGGUGAAUCUGCGAAUUCAGCUGUAUAUCUC [G16A A18U A35U U69A] | 0.71
UAACAGGGGGCCACAGGGGGAGCGUCCGCGUCGCGGCCCCUGUCAGAUUCUGAUGAAUCUGCGAAUUCUGCUGUAUAUCUC [C17G A18G A20G U26C A28G A35G G53A] | 0.05
UAACAGGGGGCCACAGAAGAAGCGUUCACGUCGCUGCCCCUGUCAGAUUCUGGUGAAUCUGCGAAUUCUGCUGUCUACCUC [C17A A35U A75C U78C] | 0.25
UAACAGGGGGCCACAACAGAAGCGCUCACGUCGCAGCCCCUGCCAGAUUCUGGUGAAUCUGCGAAUUCUGCUGUAUUUCUC [G16A U25C U43C A77U] | 0.04
UAACAGGGGGCCACAUCAGAAGCGUUCACGUCGCACCCCCUGGCAGGUUCCGGUGAAUCUGCGAAUUCUGCUGUAUAUCUC [G16U G36C U43G A47G U51C] | 0.16
UAACAGGGGGCCACACCAGAAGCGUUCGCGUCGCAGCCCCCGUCAGAUUCUGGUGAAUCUGCGAAUUCUGCUGUAUAUCUC [G16C A28G U41C] | 0.07
UAACAGGGGGCCACAACAGCAGCGUUCACGUCGCAGCCCCUGUCAGAUUCAGGUGAAUCUGCGAAUUCUGCUGUAUAUCUC [G16A A20C U51A] | 0.23
UAACAGGGGGCCACAACAGAAGCGUACACGUCGCAGCCCCUGUCAGAUUCUGGUGAAUCCGCGAAUUCUGCUGUGUAUCUC [G16A U26A U60C A75G] | 0.08
UAACAGGGGGCCACAUCAGAAGCGUUCACGUCCCAGCCCCUGUCGGAUUCUGGUGAAUCUGCGAAUUCUGCUGUAUAUCUC [G16U G33C A45G] | 0.04
UAACAGGGGGCCACACCAGAAGCGCUCACGUCGCAGCCCCUGCCAGAUCCUGGUGAAUCUGCGAAUUCUGCUGUAUAUCUC [G16C U25C U43C U49C] | 0.08
UAACAGGGGGCCACAACAGAAGCGUACACGUCGCAGCCCCUGUCAGAUUCUGGUGGAUCUGCGAAUUCUGCUGUAUAUCUC [G16A U26A A56G] | 0.16
UAACAGGGGGCCACUGCAGAAGCGUUCACGUCGCAGCCCCUGUCAGAUUCUGGUGAAUCUGCGAAUUCUGCUGUAUACCCC [A15U U78C U80C] | 1.09
UAACAGGGGGCCACAGAAGAAGCGUUCACGUCGCAGCCCCUAUCAGACUCUGGUGAAUCUGCGAAUGCUGCUGUAUAUCUC [C17A G42A U48C U67G] | 0.15
UAACAGGGGGCCACAGGUGAAGCGUACACGUCGCAGCCCCUGUCAGAUUCCGGUGAAUCUGCGGAUUCUGCUGUAUAUCUC [C17G A18U U26A U51C A64G] | 0.16
UAACAGGGGGCCACAACAGAAGCGUUCACGUCGCAGCCCCUGUCAGAUUCAGGUGAAUCUGCGAAUUCUGCUGUAUAUCAC [G16A U51A U80A] | 0.45
UAACAGGGGGCCACAUCAGAAGCGUUCGCGUCGCAGCCCCUGUCAGAUUCUGGUGAGUCUGCGAAUUCUGCUGUAUAUCUC [G16U A28G A57G] | 0.22

Variant | self-cleavage
UAACAGGGGGCCACACCAGAAGCGAUCACGUCGCAGCCCCAGUCAGAUCCUGGUGAAUCUGCGAAUUCUGCUGUAUAUCUC [G16C U25A U41A U49C] | 0.15
UAACAGGGGGCCACAACAGAAGCGUUCACGUCGCAGCCCCUGUCGGAUUCUGGUGAAUCUGCGAAUUCCGCUGUAUAUCUC [G16A A45G U69C] | 0.12
UAACAGGGGGCCACACCAGAAGCGUUCACGUCGCAGCCCCUGUCAGAUUCUGGUGGAUCUGAGAAUUCUGCUGUAUAUCUC [G16C A56G C62A] | 0.17
UAACAGGGGGCCACAGGAGGAGCGUCCACGUCGCAGCCCCUGUCAGAUUCUGAUGAAUCUGCGAAUUCUGCUGUAUAUCUC [C17G A20G U26C G53A] | 0.26
UAACAGGGGGCCACAACAGAGGCGUUCACGUCGCAGCCCCUGUCAGAUUCUGGUGAAUCCGCGAAUUCUGCUGUAUAUCUC [G16A A21G U60C] | 0.05
UAACAGGGGGCCACAACAGAAGCGUUCACGUCGCAGCCCCUGUCAGAUUCCGGCGAAUCUGCGGAUUCUGCUGUAUAUCUC [G16A U51C U54C A64G] | 0.1
UAACAGGGGGCCACAACAGAAGCGUUCACGUCGCAGCCCCUGUUAGAUUCUGGUGAACCUGCGAAUACUGCUGUAUAUCUC [G16A C44U U58C U67A] | 0.11
UAACAGGGGGCCACAGAGGAAGCGUUAACGUCGCAGCCCCUGUCAGAUUCUGGUGAAUCUGCGAAUUCUGCAGUAUAUCUC [C17A A18G C27A U72A] | 0.22
UAACAGGGGGCCACAACAGAAGCGUUCACGUCGCAGCCCCUGUCAGAUUCUGGUGAAUCUGUGAAUUCUACUGUAUAUCUC [G16A C62U G70A] | 0.15
UAACAGGGGGCCACAUCAGAAGCGUUCACGUCGCAGCCCCUGUCAGAUUCGGGUGAAUCUGCGAAUUCUGCUGUGUAUCUC [G16U U51G A75G] | 0.37
UAACAGGGGGCCACAUCAGAAGCGUUCACGUCGCAGCCCCUGUCGGAUUCUGGUGAAUCUGCGAAUUCUGCUGUAUAUCCC [G16U A45G U80C] | 0.13
UAACAGGGGGCCACAGAAGAAGCGCUCUCGUCGCGGCCCCUGUCAGAUUCUGGUGAAUCUGCGAAUUCUGCUGUAUAUCUC [C17A U25C A28U A35G] | 0.15
UAACAGGGGGCCACACCAGAGGCGUUCACGGCGCAGCCCCUGUCAGAUUCUGGUGGAUCUGCGAAGUCUGCUGUAUAUCUC [G16C A21G U31G A56G U66G] | 0.03
UAACAGGGGGCCACAACAGAAGCGUUCAGGUCGCAGCCCCUGUCGGAUUCUGGUGAAUCUGCGAACUCUGCUGUAUAUCUC [G16A C29G A45G U66C] | 0.17
UAACAGGGGGCCACAUCAGAAGCGUUCACGUCGCAGCCCCUGUCAAAUUCUGGCGAAUCCGCGAAUUCUGCUGUAUAUCUC [G16U G46A U54C U60C] | 0.04
UAACAGGGGGCCACAACAGAAGCGUUCACGUCGCAGCCCCUGUCAGAUUCUGGUGACUCUGCGAGUUCUGCUGUUUAUCUC [G16A A57C A65G A75U] | 0.09
UAACAGGGGGCCACAUCAGAAGCGUUCACGUCGCAGCCCCUGUCAGAUUCUGGUGAACCUGCGAGUUCUGCUGUAUAACUC [G16U U58C A65G U78A] | 0.06
